Assay results reported in patent publication US20240150476A1 (Chugai, published 2024).
Numbering of substitutions follows the chain as printed.

B1: 20A11-G1m/VK1-39-k0MT (other)
heavy: EVQLVESGGGLVQPGGSLRLSCAASGSVFKINVMAWYRQAPGKGRELVAGIISGGSTSYADSVKGRFTISRDNAKNTLYLQMNSLRPEDTAVYYCAFITTESDYDLGRRYWGQGTLVTVSS[skipping human IgG1 constant region]
light: DIQMTQSPSSLSASVGDRVTITCRASQSISSYLNWYQQKPGKAPKLLIYAASSLQSGVPSRFSGSGSGTDFTLTISSLQPEDFATYYCLQFDSYPLTFGGGTKVEIKRTVAAPSVFIFPPSDEQLKSGTASVVCLLNNFYPREAKVQWKVDNALQSGNSQESVTEQDSKDSTYSLSSTLTLSKADYEKHKVYACEVTHQGLSSPVTKSFNRGEC
notes: IgG antibody-like molecule: anti-IL6R VHH 20A11 fused with human IgG1 CH1-hinge-CH2-CH3
B2: 20A11-G1m/VL1-44-lamL (other)
heavy: B1 heavy
light: QSVLTQPPSASGTPGQRVTISCSGSSSNIGSNTVNWYQQLPGTAPKLLIYSNNQRPSGVPDRFSGSKSGTSASLAISGLQSEDEADYYCGTWDGGVTGVVFGGGTKLTVLGQPKAAPSVTLFPPSSEELQANKATLVCLISDFYPGAVTVAWKADSSPVKAGVETTTPSKQSNNKYAASSYLSLTPEQWKSHRSYSCQVTHEGSTVEKTVAPTECS
notes: IgG antibody-like molecule
B3: PX02-R4_017-G1mISHI01/VK1-39-k0MT (other)
heavy: QVQLVESGGGLVQPGGSLRLSCTASGISFSISTMGWYRQAPGKQRELVATITSGGEAYYANSMKDRFTISRDNAENTVYLQMNRLKPEDSAVYYCNTKFPWSTDWNARGQGTQVTVSGGSGLSGRSDNHGSSGGSS[skipping human IgG1 constant region]
light: B1 light
notes: IgG antibody-like molecule; Not protease-treated
B4: PX02-R2_001-G1mISHI01/VK1-39-k0MT (other)
heavy: B3 heavy with V2L, N106D, A107S
light: B1 light
notes: Not protease-treated
B5: PX02-R4_004-G1mISHI01/VK1-39-k0MT (other)
heavy: B3 heavy with N106D, A107S
light: B1 light
notes: as for B3
B6: PX03-R2_006-G1mISHI01/VK1-39-k0MT (other)
heavy: B3 heavy with V2L, T52A, M63V, D65G
light: B1 light
notes: as for B3
B7: PX03-R4_009-G1mISHI01/VK1-39-k0MT (other)
heavy: B3 heavy with V2L, T52A, M63V, D65G, D72E, N73Y, Y79F
light: B1 light
notes: as for B3
B8: IL6R90H1006/VK1-39-k0MT (other)
heavy: EVQLVESGGGLVQPGGSLRLSCAASGFTFDDYGMSWVRQAPGKALEWVSAISWNGNNTYYTESMKGRFTISRDNAKNTLYLQMNSLRPEDTAVYYCVKGSTAIVGVPPTYPDEYDYWGQGTLVTVSSASTKSGGSGLSGRSDNHGSSGGGPSVFPLAPSSKSTSGGTAALGCLVKDYFPEPVTVSWNSGALTSGVHTFPAVLQSSGLYSLSSVVTVPSSSLGTQTYICNVNHKPSNTKVDKKV[skipping human IgG1 Fc]
light: B1 light
notes: Not protease-treated
B9: IL6R90H1002/VK1-39-k0MT (other)
heavy: EVQLVESGGGLVQPGGSLRLSCAASGFTFDDYGMSWVRQAPGKALEWVSAISWNGNNTYYTESMKGRFTISRDNAKNTLYLQMNSLRPEDTAVYYCVKGSTAIVGVPPTYPDEYDYWGQGTLVTVSSASSGGSGLSGRSDNHGSSGGTKGPSVFPLAPSSKSTSGGTAALGCLVKDYFPEPVTVSWNSGALTSGVHTFPAVLQSSGLYSLSSVVTVPSSSLGTQTYICNVNHKPSNTKVDKKV[skipping human IgG1 Fc]
light: B1 light
notes: Not protease-treated
B10: IL6R90H1004/VK1-39-k0MT (other)
heavy: EVQLVESGGGLVQPGGSLRLSCAASGFTFDDYGMSWVRQAPGKALEWVSAISWNGNNTYYTESMKGRFTISRDNAKNTLYLQMNSLRPEDTAVYYCVKGSTAIVGVPPTYPDEYDYWGQGTLVTVSGGSGLSGRSDNHGSSGGSS[skipping human IgG1 constant region]
light: B1 light
notes: Not protease-treated
B11: IL6R90H1005/VK1-39-k0MT (other)
heavy: EVQLVESGGGLVQPGGSLRLSCAASGFTFDDYGMSWVRQAPGKALEWVSAISWNGNNTYYTESMKGRFTISRDNAKNTLYLQMNSLRPEDTAVYYCVKGSTAIVGVPPTYPDEYDYWGQGTLVTVSSASTKLSGRSDNHGGPSVFPLAPSSKSTSGGTAALGCLVKDYFPEPVTVSWNSGALTSGVHTFPAVLQSSGLYSLSSVVTVPSSSLGTQTYICNVNHKPSNTKVDKKV[skipping human IgG1 Fc]
light: B1 light
notes: Not protease-treated

What follows are binders tested against T1, soluble human IL-6R (human, UniProt P08887 20-357) (assay: BLI (Octet), in the same way as in Example 3).
T1 construct: Expressed in CHO cells and purified from the supernatant; also called hsIL-6R; recombinant human IL6R
T1 sequence: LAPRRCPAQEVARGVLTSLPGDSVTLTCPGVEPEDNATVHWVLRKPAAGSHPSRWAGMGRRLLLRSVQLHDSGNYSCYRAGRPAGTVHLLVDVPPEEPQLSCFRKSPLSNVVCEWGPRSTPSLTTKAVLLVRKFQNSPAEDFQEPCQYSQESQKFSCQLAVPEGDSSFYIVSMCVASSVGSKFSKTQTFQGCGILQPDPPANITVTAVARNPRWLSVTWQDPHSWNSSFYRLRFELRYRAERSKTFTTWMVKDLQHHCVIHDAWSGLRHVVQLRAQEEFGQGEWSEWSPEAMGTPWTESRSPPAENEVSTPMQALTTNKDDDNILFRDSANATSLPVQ

Binder | binding result
B1 | binds
B2 | binds

Each binder was assayed against T2, biotinylated plexin A1 (human, UniProt Q9UIW2 27-1253, biotin on the AviTag sequence (BirA)) (assay: BLI (Octet), human plexin A1 on sensor, protease-untreated molecule as analyte).
T2 construct: also called biotin-labeled human plexin A1; human plexin A1

Binder | binding result
B3 | no binding
B4 | no binding
B5 | no binding
B6 | no binding
B7 | no binding

What follows are binders tested against T3, hsIL-6R-BAP1 (human, UniProt P08887 20-357, biotin on the C-terminal AviTag sequence (BirA)) (assay: BLI (Octet HTX), hsIL-6R-BAP1 on streptavidin sensor, protease-untreated molecule as analyte, 30 C).
T3 construct: also called hsIL-6R-Avitag; biotinylated soluble human IL6R
T3 sequence: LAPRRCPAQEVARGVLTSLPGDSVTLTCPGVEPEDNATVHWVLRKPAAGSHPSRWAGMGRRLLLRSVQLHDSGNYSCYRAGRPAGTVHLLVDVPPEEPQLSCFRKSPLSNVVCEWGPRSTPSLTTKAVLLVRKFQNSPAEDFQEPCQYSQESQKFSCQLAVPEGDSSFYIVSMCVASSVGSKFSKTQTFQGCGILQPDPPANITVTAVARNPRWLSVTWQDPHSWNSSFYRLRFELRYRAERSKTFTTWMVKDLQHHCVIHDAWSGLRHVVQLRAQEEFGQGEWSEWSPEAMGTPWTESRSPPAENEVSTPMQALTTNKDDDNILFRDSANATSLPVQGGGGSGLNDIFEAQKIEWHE

Binder | binding result
B8 | no binding
B9 | no binding
B10 | no binding
B11 | no binding
